Results from article PMC4336329 (PLoS ONE, 2015).
Among all 310,000 compounds or so, about 2,200 (0.71%) showed an effect of 50% or more. The effect is printed as a negative number. Some of the results follow.

target: human ether-à-go-go-related gene (hERG) potassium channel (human, UniProt Q12809); experiment: primary screen, population patch clamp on CHO cells stably expressing hERG
Sequence (Q12809 whole entry, looked up): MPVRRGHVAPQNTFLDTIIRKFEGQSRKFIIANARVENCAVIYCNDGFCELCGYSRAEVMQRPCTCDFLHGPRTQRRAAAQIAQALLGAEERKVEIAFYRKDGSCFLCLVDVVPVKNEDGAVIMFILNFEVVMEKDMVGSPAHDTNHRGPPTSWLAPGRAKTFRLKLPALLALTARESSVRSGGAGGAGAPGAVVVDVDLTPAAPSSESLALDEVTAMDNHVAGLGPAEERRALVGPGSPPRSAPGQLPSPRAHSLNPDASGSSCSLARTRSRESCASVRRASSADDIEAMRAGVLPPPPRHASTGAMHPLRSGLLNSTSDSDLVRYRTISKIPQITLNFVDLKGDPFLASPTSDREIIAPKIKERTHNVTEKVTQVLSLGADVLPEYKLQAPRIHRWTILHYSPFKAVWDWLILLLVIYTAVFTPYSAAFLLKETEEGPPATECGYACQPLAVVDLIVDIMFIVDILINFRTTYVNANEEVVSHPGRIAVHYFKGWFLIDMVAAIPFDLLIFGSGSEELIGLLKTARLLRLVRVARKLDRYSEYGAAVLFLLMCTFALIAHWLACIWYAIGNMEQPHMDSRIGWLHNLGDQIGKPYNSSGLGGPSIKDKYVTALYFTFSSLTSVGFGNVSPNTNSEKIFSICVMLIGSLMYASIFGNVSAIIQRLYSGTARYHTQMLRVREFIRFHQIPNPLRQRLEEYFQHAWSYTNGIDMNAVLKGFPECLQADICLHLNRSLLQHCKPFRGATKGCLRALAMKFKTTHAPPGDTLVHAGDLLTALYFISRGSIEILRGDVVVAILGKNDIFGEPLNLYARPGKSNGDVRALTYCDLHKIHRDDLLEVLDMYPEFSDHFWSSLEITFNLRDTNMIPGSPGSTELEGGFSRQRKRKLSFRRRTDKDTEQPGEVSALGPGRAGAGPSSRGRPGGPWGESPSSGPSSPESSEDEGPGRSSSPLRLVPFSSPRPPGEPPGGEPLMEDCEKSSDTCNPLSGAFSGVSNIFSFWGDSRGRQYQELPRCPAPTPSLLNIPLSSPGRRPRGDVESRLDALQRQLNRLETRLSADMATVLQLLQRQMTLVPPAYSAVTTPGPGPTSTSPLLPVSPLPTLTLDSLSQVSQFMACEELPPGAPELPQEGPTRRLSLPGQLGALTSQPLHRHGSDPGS

SMILES | hERG current change (%, negative = inhibition) at 1uM [%]
CC1CN(C(=O)C(C)N2C(=O)c3ccccc3C2=O)CC(C)O1 (centres unmarked) | -2.66
COc1ccccc1OP(=O)(Nc1cccnc1)Oc1ccccc1OC | 18
C=CCOc1ccc(/C(O)=C2\C(=O)C(=O)N(CCOC)C2c2cccnc2)cc1 (centres unmarked) | 8.47
Cc1ccc(N2C(N)=C(C#N)C(c3cc(CN4CCOCC4)cs3)C3=C2CC(C)(C)CC3=O)cc1 (centres unmarked) | 12
O=C(Oc1c(Br)cc(Br)c2cccnc12)N1CCCCC1 | -6.26
CC1CCC(C(C)C)C(OC(=O)C[n+]2cc(-c3ccc(Cl)cc3)n3c2CCC3)C1.[Cl-] (centres unmarked) | -25.6
CC(=O)c1c[nH]c(C(=O)NCc2ccccc2Cl)c1 | 15.6
CC1CCCCC1NC(=S)Nc1cccc(S(=O)(=O)N(C)C)c1 (centres unmarked) | 18.2
CN(C)S(=O)(=O)c1ccc(C(=O)NCCSc2ccccc2)cc1 | -1.53
COc1ccc(/C=N/Nc2nnc(Cc3ccccc3)c(=O)[nH]2)cc1OC | -14.2
N#Cc1ccc(COC(=O)CSc2nnc(C3CCCCC3)n2N)cc1 | -12.3
CCC1Sc2ccc(S(=O)(=O)Nc3ccc(OC)c(OC)c3)cc2NC1=O (centres unmarked) | 10.4
C=CCNc1nc(C(=O)OCC)nc2ccccc12 | 14.3
Cc1ccc(N(C(=O)c2csnn2)C(C(=O)NC2CCCCC2)c2cccnc2)c(C)c1 (centres unmarked) | 7.11
CC1CCCCC12NC(=O)N(CC(=O)NCc1ccc3c(c1)OCO3)C2=O (centres unmarked) | 16
CC1Cc2cc(S(=O)(=O)N3CCC(C(=O)N4CCCCC4)CC3)ccc2N1C(=O)C1CC1 (centres unmarked) | -2.44
COc1cc(C(=O)Nc2ccc(N3CCCS3(=O)=O)cc2)c([N+](=O)[O-])cc1OC | 4.34
O=C(NCCc1nc(-c2ccc(F)cc2)no1)c1ccc(F)cc1 | 1.12
O=[N+]([O-])c1cccc2ncccc12 | 11.6

SMILES | hERG current change (%, negative = inhibition) at 1uM [%]
C=CC(C)Sc1nc2c(c(=O)n(C)c(=O)n2C)n1Cc1ccccc1Cl (centres unmarked) | 6.25
COC(=O)CSc1nc2c(cnn2-c2ccc(F)cc2)c(=O)[nH]1 | 20.1
CC(C)(C)OC(=O)N[C@H](/C=C/c1ccccc1)C(=O)OC(C)(C)C | 4.95
O=C(O)CSc1nc(-c2ccccc2)cc(=O)[nH]1 | 6.67
Cc1cc(=O)[nH]c(SCC(=O)N2c3ccccc3CC2C)n1 (centres unmarked) | 12.4
CCOC(=O)C1=C(COC(=O)CCc2ccc(CC)cc2)NC(=O)NC1C (centres unmarked) | 5.55
NC(=O)c1nn(-c2ccccc2)nc1NC(=O)CN1CCOCC1 | 1.71
Cc1cccc2c1cnn2C(=O)CCC(=O)NCC(C)c1ccccc1 (centres unmarked) | 13.5
CN(C)/C=C(/C(=O)c1ccc(Cl)cc1)S(=O)(=O)c1ccccc1 | 7.81
CC(=O)NC(Cc1cc(C)ccc1C)C(=O)N1CCN(C(=O)c2ccc(Br)cc2)CC1 (centres unmarked) | -11
Cc1nn(-c2ccccc2)c2c1C(c1ccc(Cl)cc1)N(c1ccccc1)C(=O)N2 (centres unmarked) | -8.45
CC1CN(C(=O)N[C@@H](Cc2ccccc2)C(=O)O)CC(C)O1 (some centres unmarked) | 6.78
Cc1cc(C)cc(N(CC(=O)NC2CCCCC2)C(=O)CNC(=O)c2ccco2)c1 | 5.75
CC(C)(c1ccccc1)c1ccc(OCCN2CCCC2)cc1 | 12.5
O=C(CSc1nnc(CNC(=O)c2ccc(F)cc2)o1)NCc1ccccc1Cl | 6.48
O=[N+]([O-])c1cnccc1Nc1cccc(F)c1 | 4.22
CC(C)NC(=O)C1CCN(C2CCN(C(=O)/C=C/c3cccs3)CC2)CC1 | 0.466
COc1cc(C(=O)NCC(c2ccccc2)N(C)C)ccc1OCC(=O)N1CCOCC1 (centres unmarked) | 12.1
NN1C(=O)NC(c2ccccc2)(c2ccccc2)C1=O | 8.48

SMILES | hERG current change (%, negative = inhibition) at 1uM [%]
COc1cccc(C2CC(c3cccs3)=NN2C(=O)CCC(=O)O)c1OC (centres unmarked) | 11.3
COc1ccc(C2N(C(C)=O)CCCN2S(=O)(=O)c2ccc(C)cc2)cc1 (centres unmarked) | -6.08
CCn1c(SCC(=O)c2ccc(O)c(O)c2)nnc1-c1ccc(C)cc1 | -2.88
CCN(c1ccccc1)S(=O)(=O)c1ccc(NC(=O)C(C)(C)C)cc1 | 2.29
Cc1nn(-c2cccc(Cl)c2)c2c1C(c1cccnc1)C(C#N)=C(N)O2 (centres unmarked) | 16.8
O=C(CCCc1c[nH]c2ccccc12)NCc1ccc2c(c1)OCO2 | 3.51
COc1ccccc1N1CCN(C(=O)C2CCN(S(=O)(=O)c3ccc(F)cc3)CC2)CC1 | -0.279
O=C(CNC(=O)c1ccccc1)OCCCOC(=O)CNC(=O)c1ccccc1 | 9.3
NS(=O)(=O)c1ccc(NC(=O)C(=O)NCCC(=O)O)cc1 | -13.4
O=C(CN(c1ccccc1)S(=O)(=O)c1ccccc1)Nc1ccc(F)cc1 | 17
O=C(CNC(=O)c1cccs1)NCC(=O)OCc1ccc(Cl)cc1Cl | -1.41
Cc1c(C(=O)N2CCN(c3ccccn3)CC2)cccc1[N+](=O)[O-] | 4.41
COC(=O)Nc1ccc(S(=O)(=O)N2CCCCC2C(=O)O)cc1 (centres unmarked) | 17.2
Cc1ccc(NC(=O)C2CC(=O)Nc3ncnn32)c(C)c1 (centres unmarked) | -5.16
Cc1cc(Br)ccc1SCC(=O)Nc1cccnc1 | 11.8
CCC1CN(C(=O)Nc2cccc(C)c2)c2cc(C)ccc2O1 (centres unmarked) | 0.0513
Cn1c(=O)c2c(ncn2CCC(=O)N/N=C/c2cccnc2)n(C)c1=O | 14.2
Cc1ccc(-n2c(-c3ccco3)nc3nc4ccccc4nc32)cc1 | -9.46
